Results: the supplement of paper PMC11417369
± gives the standard deviation of the averaged measurements. The list shows a part of the results.

The sequences below were run on PfAP2-G AP2 domain (GST-tagged) (assay: gcPBM binding intensity (ln(normalized median fluorescence intensity)); higher = stronger DNA binding).
How it was run: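 Using an Agilent 4 × 180k array, primer-extended double-stranded 36-bp intergenic genomic probes and negative controls were exposed for 1 h to GST-fused P. falciparum DNA-binding domains expressed in E. coli. Binding was carried out in 1× PBS with 1% milk, 0.2 mg/ml BSA, 0.5% salmon testes DNA and 0.03% Triton X-100, and protein was detected with Alexa488 anti-GST antibody and a 488 nm scan. Binding intensity is the highest Masliner-normalised natural-log median intensity across replicate spots of either probe orientation.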

In order of falling “gcPBM binding intensity (ln)” value:
1. GTATAATTTAAAAAGTGTACATAAAGTTTTTATTAA [XGTACX_site1090]  11.6 ± 0.81
2. TATATTATAAATTAATGTACGTAATTTTTTTTTTTT [XGTACX_site2500]  11.5 ± 0.93
3. TAAATACTTTTATGTACACACATATAGATATATATT [CACACA_site5416]  11.5 ± 0.81
4. AAAAAATTCAAAATCACACATAAAAAAGGACACATA [CACACA_site5972]  11.4 ± 0.79
5. AGAATCACCAAATATGTACACACCTTAACATGTTTA [CACACA_site2068]  11.4 ± 0.91
6. GTGATAAATATTATATGTACATATAATATTTATGTC [XGTACX_site8023]  11.4 ± 0.88
7. ATATATATATGTTACTGTACTAATTTATATGTTAAT [XGTACX_site3341]  11.4 ± 0.95
8. TAGATATATAATTTGCGTACACAAATAATATATTTT [XGTACX_site6397]  11.4 ± 0.97
9. TAACATATTTTTAATACACACTCAAAAAAGTACTTA [CACACA_site5638]  11.4 ± 0.95
10. ACAGTATCTGGTAGCTGTACGGATTGTAGAGAGTAG [XGTACX_site4872]  11.4 ± 0.87
11. CGCGCACACGGACACACACACACACGGATATAAATA [CACACA_site7102]  11.4 ± 0.86
12. ATTATATAATCTATATGTACATATATATATATATAT [XGTACX_site4970]  11.3 ± 0.8
13. CCATTCTTACTTTATTGTACTTGAAAATTTTTTTTA [XGTACX_site6160]  11.3 ± 0.67
14. ATACACATATGTTAATGTACACATATATAATATTTA [XGTACX_site163]  11.3 ± 0.78
15. AAAAAATTATAAAAGTGTACATATATATATATATAT [XGTACX_site154]  11.3 ± 0.8
16. ATATATTAAAAACGATGTACCCTGAACTAAAAAAAA [XGTACX_site4986]  11.3 ± 0.66
17. AAATAAATATTTATATGTACATATATTTTATAATAC [XGTACX_site7041]  11.3 ± 0.73
18. GTTCATACTTAATATTGTACTTTTCATGTAGTGTAT [XGTACX_site6613]  11.3 ± 0.8
19. TTCTTATCAAGAGAAAGTACATAAAAAATTAATAAG [XGTACX_site1821]  11.3 ± 0.79
20. TTGGATTTTCCATAATGTACACATAAAAGTGTTACA [XGTACX_site4544]  11.3 ± 0.89
21. TAATATAGTATAGTATGTACATATAATTAGAATATT [XGTACX_site4053]  11.3 ± 0.77
22. ATATAACATAATGGATGTACATGTATAAATATAAAA [XGTACX_site8228]  11.2 ± 0.76
23. TTATTACCATATTTTGTACACACATCTTTATCTCAA [CACACA_site9054]  11.2 ± 0.6
24. TTTTTGTGCATTGATTGTACTTTCTAGGATTATTAA [XGTACX_site7070]  11.2 ± 0.72
25. GAAATTATGTAAAAAAGTACTAACATACATATATAT [XGTACX_site1794]  11.2 ± 0.77
26. TTATGGTTTAAATAAAGTACAAATAAATAAATATAT [XGTACX_site5777]  11.2 ± 0.76
27. TAGTTTTCTTAAAGATGTACATTTTAAAAATAATCT [XGTACX_site255]  11.2 ± 0.63
28. TATTTATTTATGTGTTGTACAAATAAATAGAGGTAT [XGTACX_site6408]  11.2 ± 0.71
29. ATCATGTTATATACATGTACATATATATATATATAT [XGTACX_site1329]  11.2 ± 0.82
30. ATATATATATATATATGTACATATTTTAATAATTAA [XGTACX_site8549]  11.2 ± 0.6
31. TAATTTTGTAAAAATTGTACATATTTATCTTTTTAT [XGTACX_site4305]  11.1 ± 0.81
32. GAAAACGTCTTTAATAGTACACAGTTAAAAAATACA [XGTACX_site8976]  11.1 ± 0.75
33. TATATATATATATAAAGTACATATAATATATATTTG [XGTACX_site5412]  11.1 ± 0.71
34. TTAAAATAGATAAATAGTACTCTTTCCATTATGTAA [XGTACX_site6299]  11.1 ± 0.42
35. TCATATTATAAAAAATGTACAAGGAAAAAATATATA [XGTACX_site337]  11 ± 0.43
36. ATATATATGGTCATTTGTACATATCGTGAGAGCTGC [XGTACX_site4117]  11 ± 0.49
37. TTTCTATTTATTTCAAGTACTAAAAATATATATAAC [XGTACX_site8203]  11 ± 0.79
38. TTTATCCAATAATCTGGTACACAATAATCATTCATG [XGTACX_site6192]  11 ± 0.5
39. TGGTATATATTTCCTTGTACATATAATATATATTGT [XGTACX_site3961]  11 ± 0.47
40. ATAATAATATTATTTTGTACATATGTGCTTATTTAT [XGTACX_site5540]  10.9 ± 0.47
41. TCATATAACACTTGATGTACAAGAATCCAAGTTGCA [XGTACX_site8758]  10.9 ± 0.69
42. TTGAAAATACAAAATTGTACAAAGATTTAAATAAAA [XGTACX_site1182]  10.9 ± 0.35
43. ACAAAATTTACAAAATGTACAAAATTTACAAAATAT [XGTACX_site3542]  10.8 ± 0.49
44. CTATAAAAATATAATTGTACAAATTTTTATATCTTA [XGTACX_site7722]  10.8 ± 0.43
45. AGGTTACATAGATTTTGTACATATATATTATTTTTT [XGTACX_site3040]  10.7 ± 0.4
46. CATATTTCTTTATTGGCACACATTTTTTCAATTATA [CACACA_site1618]  10.5 ± 0.35
47. TAAACATACAGATACACACACACACCCACAGAGACA [CACACA_site4429]  10.4 ± 0.34
48. CTTGGGCGTCATAATGAACACACAATTATATTATGA [CACACA_site9297]  10.4 ± 0.46
49. CCTACAATTCGTAATACACACACATATATATATATA [CACACA_site9251]  10.3 ± 0.3
50. ATTCATATATACTTCACACACATTTTATCATTCAAA [CACACA_site2468]  10.3 ± 0.14
51. TTTATTTATTACAATTTTTGAATCACCACACAGTCG [GTGCAC_negctrl_site413]  10.3 ± 0.39
52. TATTAGATATAATATATACACACCAACGAACGAAGA [CACACA_site1134]  10.3 ± 0.18
53. TTCATTCAAATTAACGTGCACATTATTAGTAAAAAC  10.3 ± 0.3
54. TTTTGTCAACATTTTTATATTAGGTCTTGAACGATT [GTGCAC_negctrl_site72]  10.2 ± 0.18
55. CGCATACACAGACACACACACACATATAAATATGTA [CACACA_site6444]  10.2 ± 0.24
56. CCAACAAAAATAAGCACACACAAATATACATACATA [CACACA_site3606]  10.2 ± 0.18
57. AAAATAATAAATAACGCATGCGTGTGCATTTTATTC [TGCATGCA_site898]  10.1 ± 0.23
58. TATATATAAGCGCATGCACACGCAAAGGTATATAAA [CACACA_site8107]  10.05 ± 0.057
59. TTTTTTTTTTTGATGGTGCAATATATTAAATAGAAA  10.1 ± 0.47
60. TGAAATAAATAATGCACACTCTACAGATATACGTAT [CACACA_site5270]  10.1 ± 0.11
61. TATATGAAAATGTTCATACACACATAAAAAAAAAAA [CACACA_site3237]  10.1 ± 0.26
62. TATACCTATAGACACACACACATATAGATTTATATA [CACACA_site7124]  10.1 ± 0.11
63. TACAAATATATATGCACACACATATACATACATATA [CACACA_site2182]  10.1 ± 0.2
64. TGTTGTTACATATATACACACATATATATATTATAT [CACACA_site2397]  10.1 ± 0.057
65. ATATATACAAATCCTTTTTTCCAAGATGGAAAAAGA [CACACA_negctrl_site382]  10 ± 0.12
66. AGTAATAAGTAATTTACACACATATTATAGCATCAC [CACACA_site6971]  10 ± 0.14
67. AAAAAAAAAAAAAACATACACACATTGAACTTTTAT [CACACA_site3251]  10.04 ± 0.049
68. TTTCTTAAATATATTGAGGAATAAAAAGAAGAAAAG [GTGCAC_negctrl_site281]  10 ± 0.3
69. AAAAAAAAAAAAAACACACACAAATTTAATCTATAT [CACACA_site6894]  9.99 ± 0.23
70. AGAATAATAAAATGGGTGCAATAGTTTTTTTTTTTT [GTGCAC_site9823]  9.99 ± 0.042
71. ATAATGTTTTATAATACACACATTAGATATATAAAT [CACACA_site7834]  9.975 ± 0.049
72. CACAAAAATAGACACACACACATATAGATTTATTAT [CACACA_site7676]  9.97 ± 0.11
73. TTTTTTTTTTACTTCACACATATACATTTATATTTA [CACACA_site4385]  9.96 ± 0.071
74. AATACAAATATATACACACATACATACATACATATA [CACACA_site3147]  9.965 ± 0.035
75. CATGCAATATTAAACACACACTCATATAGCACAATA [CACACA_site6182]  9.96
76. AATTTTTTATTAAACACACAAACATATATATATATA [CACACA_site1937]  9.95 ± 0.25
77. TTTTTTCATTATATATAGTATGCAAGTCAAATTAAT [GTGCAC_negctrl_site207]  9.94 ± 0.22
78. TTATGAAAAATAAAATTAGAAAAAAAGGAAAATGAA [XGTACX_negctrl_site232]  9.915 ± 0.078
79. CAAAACCTACATAACATACACACGCATATATAGAAT [CACACA_site2846]  9.905 ± 0.007
80. TTTTTTTACTTAATAGTTCAACATATATCTCAATGT [CACACA_negctrl_site620]  9.885 ± 0.007
81. TATATAATAAGATATGCATGCACATGTAAAATGAAT [TGCATGCA_site499]  9.84 ± 0.21
82. TTGAACCTGATAAATACACACAATATATATTTTTTT [CACACA_site2173]  9.8 ± 0.071
83. CTTATATGAAGCCTCTTTATTCATAAATAAGAATAA [TGCATGCA_negctrl_site120]  9.77 ± 0.099
84. ATATGTATAATATATATATATATATATATATATATA [CACACA_negctrl_site623]  9.74 ± 0.4
85. TTATATAATTTAATAGTGCAATTATATTAATTTTTC  9.71 ± 0.042
86. TGTTATTACTTTATATCATCTTAAAATAAGCATATT [CACACA_negctrl_site1501]  9.7 ± 0.15
87. TCAAAAACGAGACATGCATGCAATTCATTTTGATTC [TGCATGCA_site212]  9.64 ± 0.12
88. AAAAAAAAAAAAAACACACACATATAATATATTTAA [CACACA_site1337]  9.62 ± 0.18
89. TTTTAAAAAATATAATATAATATAATATAAAATAAA [CACACA_negctrl_site154]  9.405 ± 0.035
